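1) Cells in 96-well plates. 2) Compound, 48 h, 5 concentrations. 3) Linear interpolation between surrounding doses. 4) Unreached endpoint = highest concentration. GI50: concentration for 50% inhibition of growth.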 Calls of active or inactive are those of the source. Cut-off read from the data, not from the text of the source: active = GI50 up to about 1.1 µM and inactive = higher.
Assays:
Assay in all cases: NCI anticancer screen, dose series, 48 h
786-0 = tested on: 786-0
A498 = tested on: A498
A549 = tested on: A549
ACHN = tested on: ACHN
BT-549 = tested on: BT-549
CAKI-1 = tested on: CAKI-1
CCRF-CEM = tested on: CCRF-CEM
COLO 205 = tested on: COLO 205
DU-145 = tested on: DU-145
EKVX = tested on: EKVX
HCC 2998 = tested on: HCC 2998
HCT-116 = tested on: HCT-116
HCT-15 = tested on: HCT-15
HL-60 = tested on: HL-60
HOP-62 = tested on: HOP-62
HT-29 = tested on: HT-29
Hs-578T = tested on: Hs-578T
IGROV-1 = tested on: IGROV-1
K562 = tested on: K562
KM12 = tested on: KM12
LOX IMVI = tested on: LOX IMVI
M14 = tested on: M14
MCF7 = tested on: MCF7
MDA-MB-231 = tested on: MDA-MB-231
MDA-MB-435 = tested on: MDA-MB-435
MDA-N = tested on: MDA-N
MOLT-4 = tested on: MOLT-4
Malme-3M = tested on: Malme-3M
NCI-H226 = tested on: NCI-H226
NCI-H23 = tested on: NCI-H23
NCI-H460 = tested on: NCI-H460
NCI-H522 = tested on: NCI-H522
NCI/ADR-RES = tested on: NCI/ADR-RES
OVCAR-3 = tested on: OVCAR-3
OVCAR-4 = tested on: OVCAR-4
OVCAR-5 = tested on: OVCAR-5
OVCAR-8 = tested on: OVCAR-8
PC-3 = tested on: PC-3
RPMI-8226 = tested on: RPMI-8226
RXF 393 = tested on: RXF 393
SF-268 = tested on: SF-268
SF-295 = tested on: SF-295
SF-539 = tested on: SF-539
SK-MEL-28 = tested on: SK-MEL-28
SK-MEL-2 = tested on: SK-MEL-2
SK-MEL-5 = tested on: SK-MEL-5
SK-OV-3 = tested on: SK-OV-3
SN12C = tested on: SN12C
SNB-19 = tested on: SNB-19
SNB-75 = tested on: SNB-75
SR = tested on: SR
SW-620 = tested on: SW-620
T47D = tested on: T47D
TK-10 = tested on: TK-10
U-251 = tested on: U-251
UACC-257 = tested on: UACC-257
UACC-62 = tested on: UACC-62
UO-31 = tested on: UO-31

COc1cc2c(cc1OC)-c1[nH]c3ccc(C(F)(F)F)cc3c1CC(=O)N2
GI50 (786-0): inactive: 4.03 µM | GI50 (A498): inactive: 3.7 µM | GI50 (A549): inactive: 3.15 µM | GI50 (ACHN): inactive: 3.44 µM | GI50 (BT-549): inactive: 28.7 µM | GI50 (CAKI-1): inactive: 2.72 µM | GI50 (CCRF-CEM): inactive: 3.23 µM | GI50 (COLO 205): inactive: 2.9 µM | GI50 (DU-145): inactive: 4.59 µM | GI50 (EKVX): inactive: 15.5 µM | GI50 (HCC 2998): inactive: 2.39 µM | GI50 (HCT-116): inactive: 1.74 µM | GI50 (HCT-15): 4.02 µM | GI50 (HL-60): inactive: 2.59 µM | GI50 (HOP-62): inactive: 5.56 µM | GI50 (HT-29): inactive: 4.58 µM | GI50 (Hs-578T): inactive: 9.46 µM | GI50 (IGROV-1): inactive: 3.5 µM | GI50 (K562): inactive: 2.46 µM | GI50 (KM12): inactive: 3.26 µM | GI50 (LOX IMVI): inactive: 2.74 µM | GI50 (M14): inactive: 8.87 µM | GI50 (MCF7): inactive: 5.62 µM | GI50 (MDA-MB-231): inactive: 7.91 µM | GI50 (MDA-MB-435): inactive: 5.7 µM | GI50 (MDA-N): inactive: 3.37 µM | GI50 (MOLT-4): inactive: 2.16 µM | GI50 (Malme-3M): inactive: 13.1 µM | GI50 (NCI-H226): inactive: 1.43 µM | GI50 (NCI-H23): inactive: 6.19 µM | GI50 (NCI-H460): inactive: 4.45 µM | GI50 (NCI-H522): inactive: 9.14 µM | GI50 (NCI/ADR-RES): inactive: 5.05 µM | GI50 (OVCAR-3): inactive: 2.52 µM | GI50 (OVCAR-4): inactive: 12.9 µM | GI50 (OVCAR-5): inactive: 5 µM | GI50 (OVCAR-8): inactive: 4.34 µM | GI50 (PC-3): inactive: 5.79 µM | GI50 (RPMI-8226): inactive: 2.34 µM | GI50 (RXF 393): inactive: 1.66 µM | GI50 (SF-268): inactive: 5.47 µM | GI50 (SF-295): inactive: 5.21 µM | GI50 (SF-539): inactive: 4.05 µM | GI50 (SK-MEL-28): inactive: 19.3 µM | GI50 (SK-MEL-2): inactive: 5.52 µM | GI50 (SK-MEL-5): inactive: 3.63 µM | GI50 (SK-OV-3): inactive: 11.1 µM | GI50 (SN12C): inactive: 9.89 µM | GI50 (SNB-19): inactive: 24.7 µM | GI50 (SNB-75): inactive: 4.81 µM | GI50 (SR): inactive: 1.82 µM | GI50 (SW-620): inactive: 19.8 µM | GI50 (T47D): inactive: 5.78 µM | GI50 (TK-10): inactive: 23.6 µM | GI50 (U-251): inactive: 4.59 µM | GI50 (UACC-257): inactive: > 100 µM | GI50 (UACC-62): inactive: 15.5 µM | GI50 (UO-31): inactive: 2.91 µM

Reference: ChEMBL document CHEMBL1201862, “PubChem BioAssay data set” (2004)
